Experimental findings from article PMC8546722 are described below.

Results are given in words; binding and its absence hold for the method and conditions named. Some entries that bind do so weakly or less than the wild type. Sequences can lack the tags named with a protein.

In test [1] the target is T1, T25-YidC2 (full-length YidC2, two-hybrid fusion) (Streptococcus mutans) (UniProt Q8DSP8).
T1 sequence: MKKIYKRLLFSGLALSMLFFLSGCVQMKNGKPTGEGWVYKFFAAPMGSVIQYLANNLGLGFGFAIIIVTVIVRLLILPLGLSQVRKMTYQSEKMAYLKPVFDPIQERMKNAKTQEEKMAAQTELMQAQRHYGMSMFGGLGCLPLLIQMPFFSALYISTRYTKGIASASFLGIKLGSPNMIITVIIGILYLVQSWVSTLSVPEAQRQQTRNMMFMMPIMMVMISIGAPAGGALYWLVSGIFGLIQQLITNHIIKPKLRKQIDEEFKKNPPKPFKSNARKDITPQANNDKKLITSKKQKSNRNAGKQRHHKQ
Description: two-hybrid.

Test [2] addresses T2, T25-YidC1 (full-length YidC1, two-hybrid fusion) (Streptococcus mutans) (UniProt Q8DVX3).
T2 sequence: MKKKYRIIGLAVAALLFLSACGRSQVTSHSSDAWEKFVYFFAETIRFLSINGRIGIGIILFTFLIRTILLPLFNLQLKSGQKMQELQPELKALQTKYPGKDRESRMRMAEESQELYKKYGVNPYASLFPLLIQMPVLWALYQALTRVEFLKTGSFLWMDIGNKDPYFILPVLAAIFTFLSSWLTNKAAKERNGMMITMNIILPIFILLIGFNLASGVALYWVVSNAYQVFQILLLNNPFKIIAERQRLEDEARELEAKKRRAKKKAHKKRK
Description: two-hybrid.

Test [3] has as its target T1, T25-YidC2 (full-length YidC2, two-hybrid fusion) (Streptococcus mutans). Kind of test: two-hybrid; bacterial two-hybrid (BACTH): T25 (pKT25) and T18 (pUT18C) fusions cotransformed in E. coli cya mutant BTH101; blue colour on LB agar with X-gal and 0.5 mM IPTG, 48 h at 30°C.
The target in test [4] is T2, T25-YidC1 (full-length YidC1, two-hybrid fusion) (Streptococcus mutans). Described as above.
Test [5] deals with T3, Ffh (two-hybrid fusion) (Streptococcus mutans) (UniProt Q54431).
T3 sequence: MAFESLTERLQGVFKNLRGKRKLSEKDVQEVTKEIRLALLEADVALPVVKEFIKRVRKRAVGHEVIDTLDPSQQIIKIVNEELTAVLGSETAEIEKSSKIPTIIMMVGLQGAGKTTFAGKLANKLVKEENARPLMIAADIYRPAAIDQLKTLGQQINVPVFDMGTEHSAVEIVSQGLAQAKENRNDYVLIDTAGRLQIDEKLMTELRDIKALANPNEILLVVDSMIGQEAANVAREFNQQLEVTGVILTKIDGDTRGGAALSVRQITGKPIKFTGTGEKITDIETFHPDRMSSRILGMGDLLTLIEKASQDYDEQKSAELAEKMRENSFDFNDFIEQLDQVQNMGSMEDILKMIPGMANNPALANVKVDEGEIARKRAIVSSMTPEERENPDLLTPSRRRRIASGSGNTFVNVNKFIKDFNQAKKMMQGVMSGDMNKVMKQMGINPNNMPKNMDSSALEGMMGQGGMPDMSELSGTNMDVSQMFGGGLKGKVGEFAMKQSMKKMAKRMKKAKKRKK
Description: two-hybrid.

Test [6] deals with T2, T25-YidC1 (full-length YidC1, two-hybrid fusion) (Streptococcus mutans). Kind of test: two-hybrid. This is another data set of the same source.
Test [7] has as its target T4, FtsY (two-hybrid fusion) (Streptococcus mutans) (UniProt Q8CWX8).
T4 sequence: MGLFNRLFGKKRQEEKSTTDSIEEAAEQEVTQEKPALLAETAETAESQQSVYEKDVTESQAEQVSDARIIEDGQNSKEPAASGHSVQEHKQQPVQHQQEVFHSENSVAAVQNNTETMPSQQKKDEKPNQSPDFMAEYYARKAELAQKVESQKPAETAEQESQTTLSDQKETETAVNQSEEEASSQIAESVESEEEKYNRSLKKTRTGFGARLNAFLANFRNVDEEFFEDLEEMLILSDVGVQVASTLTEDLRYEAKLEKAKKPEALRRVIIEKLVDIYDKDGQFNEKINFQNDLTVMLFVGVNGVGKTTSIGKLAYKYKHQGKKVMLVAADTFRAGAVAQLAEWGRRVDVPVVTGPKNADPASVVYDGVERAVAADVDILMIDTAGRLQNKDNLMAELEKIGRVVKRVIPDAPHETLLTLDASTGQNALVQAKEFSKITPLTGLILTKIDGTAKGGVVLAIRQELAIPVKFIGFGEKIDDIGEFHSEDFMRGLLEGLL
Description: two-hybrid; bacterial two-hybrid (BACTH): T25 (pKT25) and T18 (pUT18C) fusions cotransformed in E. coli cya mutant BTH101; blue colour on LB agar with X-gal and 0.5 mM IPTG, 48 h at 30°C.

Test [8] has as its target T3, Ffh (two-hybrid fusion) (Streptococcus mutans). The test is described as above.

On to “DnaK (two-hybrid fusion) (from UniProt O06942 1-612)”, for which the binding entry in test [1] and in test [2] was “binds” throughout.
For “HlyX (two-hybrid fusion) (from UniProt O68574 1-445)”, the binding entry in test [3] and in test [4] was “binds” in each case.
For the molecule “SecE (two-hybrid fusion) (from UniProt Q8DS81 1-58)”, the binding entry in test [5] was “no binding”.

B1: Ffh (two-hybrid fusion) (protein, UniProt Q54431 1-516)
chain: MAFESLTERLQGVFKNLRGKRKLSEKDVQEVTKEIRLALLEADVALPVVKEFIKRVRKRAVGHEVIDTLDPSQQIIKIVNEELTAVLGSETAEIEKSSKIPTIIMMVGLQGAGKTTFAGKLANKLVKEENARPLMIAADIYRPAAIDQLKTLGQQINVPVFDMGTEHSAVEIVSQGLAQAKENRNDYVLIDTAGRLQIDEKLMTELRDIKALANPNEILLVVDSMIGQEAANVAREFNQQLEVTGVILTKIDGDTRGGAALSVRQITGKPIKFTGTGEKITDIETFHPDRMSSRILGMGDLLTLIEKASQDYDEQKSAELAEKMRENSFDFNDFIEQLDQVQNMGSMEDILKMIPGMANNPALANVKVDEGEIARKRAIVSSMTPEERENPDLLTPSRRRRIASGSGNTFVNVNKFIKDFNQAKKMMQGVMSGDMNKVMKQMGINPNNMPKNMDSSALEGMMGQGGMPDMSELSGTNMDVSQMFGGGLKGKVGEFAMKQSMKKMAKRMKKAKKRKK
B1: the binding result in test [3] and in test [6] was “binds” in each case.

B2: YlxM (two-hybrid fusion) (protein, UniProt P96468 1-110)
chain: MEIEKTNRMNALFEFYAALLTDKQMNYIELYYADDYSLAEIAEEFDVSRQAVYDNIKRTEKILEDYEMKLHMYSDYVVRSEIFDAIMKKYPNDPYLQNKISILTTIDNRD
For B2, the binding entry in test [7] was “no binding”; in test [3] it was “binds”; in test [4], “binds”; in test [8], “binds”.

B3: FtsY (two-hybrid fusion) (protein, UniProt Q8CWX8 1-498)
chain: MGLFNRLFGKKRQEEKSTTDSIEEAAEQEVTQEKPALLAETAETAESQQSVYEKDVTESQAEQVSDARIIEDGQNSKEPAASGHSVQEHKQQPVQHQQEVFHSENSVAAVQNNTETMPSQQKKDEKPNQSPDFMAEYYARKAELAQKVESQKPAETAEQESQTTLSDQKETETAVNQSEEEASSQIAESVESEEEKYNRSLKKTRTGFGARLNAFLANFRNVDEEFFEDLEEMLILSDVGVQVASTLTEDLRYEAKLEKAKKPEALRRVIIEKLVDIYDKDGQFNEKINFQNDLTVMLFVGVNGVGKTTSIGKLAYKYKHQGKKVMLVAADTFRAGAVAQLAEWGRRVDVPVVTGPKNADPASVVYDGVERAVAADVDILMIDTAGRLQNKDNLMAELEKIGRVVKRVIPDAPHETLLTLDASTGQNALVQAKEFSKITPLTGLILTKIDGTAKGGVVLAIRQELAIPVKFIGFGEKIDDIGEFHSEDFMRGLLEGLL
As to B3, the binding result in test [6] is “binds”.
